According to paper PMC4336329 (PLoS ONE, 2015):
Among all 310,000 compounds or so, about 14,000 (4.5%) showed an effect of 50% or more. Effects have a minus sign here. This is one part of the list.

These molecules were tested against human ether-à-go-go-related gene (hERG) potassium channel (human, UniProt Q12809) (assay: primary screen, population patch clamp on CHO cells stably expressing hERG).
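Further: peak tail current of the secondary pulse compared with the same well before compound.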

Sequence of human ether-à-go-go-related gene (hERG) potassium channel (Q12809 whole entry, looked up): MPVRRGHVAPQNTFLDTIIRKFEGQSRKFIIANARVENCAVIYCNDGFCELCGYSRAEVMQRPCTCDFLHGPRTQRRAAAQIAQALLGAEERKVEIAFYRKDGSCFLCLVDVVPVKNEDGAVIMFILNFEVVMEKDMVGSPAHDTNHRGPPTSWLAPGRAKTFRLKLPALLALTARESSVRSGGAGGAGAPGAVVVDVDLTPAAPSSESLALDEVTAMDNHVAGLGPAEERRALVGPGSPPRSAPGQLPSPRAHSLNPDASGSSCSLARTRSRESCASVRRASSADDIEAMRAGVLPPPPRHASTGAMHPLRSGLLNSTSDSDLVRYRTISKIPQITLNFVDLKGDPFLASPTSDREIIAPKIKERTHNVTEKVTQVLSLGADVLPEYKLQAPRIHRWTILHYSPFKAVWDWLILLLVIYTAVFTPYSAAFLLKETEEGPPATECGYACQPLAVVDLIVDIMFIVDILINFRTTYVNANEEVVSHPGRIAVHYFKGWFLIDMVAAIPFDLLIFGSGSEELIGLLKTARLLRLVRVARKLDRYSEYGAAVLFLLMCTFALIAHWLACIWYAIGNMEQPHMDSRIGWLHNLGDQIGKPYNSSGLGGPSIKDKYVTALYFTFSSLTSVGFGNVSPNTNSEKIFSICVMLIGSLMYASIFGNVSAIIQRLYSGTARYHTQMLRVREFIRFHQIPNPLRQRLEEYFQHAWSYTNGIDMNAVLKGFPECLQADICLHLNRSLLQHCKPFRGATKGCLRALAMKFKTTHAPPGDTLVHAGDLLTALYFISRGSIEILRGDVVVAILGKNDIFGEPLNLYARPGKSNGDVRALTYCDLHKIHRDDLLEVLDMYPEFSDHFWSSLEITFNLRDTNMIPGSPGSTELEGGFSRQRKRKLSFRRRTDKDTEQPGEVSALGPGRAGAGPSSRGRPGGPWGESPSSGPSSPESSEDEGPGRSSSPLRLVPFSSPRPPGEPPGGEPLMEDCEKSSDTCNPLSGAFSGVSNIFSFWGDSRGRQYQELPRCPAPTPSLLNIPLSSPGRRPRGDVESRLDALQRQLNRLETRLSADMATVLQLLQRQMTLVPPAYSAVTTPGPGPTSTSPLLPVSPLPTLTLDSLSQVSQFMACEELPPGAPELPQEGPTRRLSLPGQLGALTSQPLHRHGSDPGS

| SMILES | hERG current change (%, negative = inhibition) at 10uM |
| --- | --- |
| Cc1[nH]c2ccccc2c1/C=N/NC(=S)NCc1ccccc1 | 22.1% |
| Cc1ccc(C(=O)NNc2ncnc3ccccc23)cc1 | 9.43% |
| CCC(=O)O[C@]1(C(=O)CCl)[C@@H](C)C[C@H]2[C@@H]3CCC4=CC(=O)C=C[C@]4(C)[C@@]3(F)[C@@H](O)C[C@@]21C | 12.2% |
| COc1ccccc1NC(=O)CCS(=O)(=O)c1ccccc1 | 12.7% |
| COc1ccccc1Nc1nnc(SCC(=O)NC2CCCC2)s1 | -0.29% |
| COc1ccc(N(C(=O)c2cnccn2)C(C(=O)NC2CCCCC2)c2ccc(O)cc2)cc1 (stereo not drawn) | 7.41% |
| CCC(=O)Oc1ccc(C(=O)Nc2ccc([N+](=O)[O-])cc2)cc1 | 13% |
| COc1ccc(CNC(=O)C(=O)c2cn(CC(=O)N3CCCC3)c3ccccc23)cc1 | 3.02% |
| O=C(c1sccc1-c1ccccc1)N1CCN(S(=O)(=O)c2ccccc2)CC1 | -6.73% |
| Cc1cccnc1NC(=O)c1ccc(OCc2c(C)noc2C)cc1 | -6.78% |
| Cc1ccc(-n2c(Cn3cnc4ccccc43)nnc2SCC(=O)O)cc1 | -1.94% |
| O=C(N=C1SC2CS(=O)(=O)CC2N1Cc1ccc(F)cc1)C1CCCO1 (stereo not drawn) | -5.58% |
| COc1ccc(Cn2c(=O)sc3ccccc32)cc1OC | -20.1% |
| COc1ccc(N2CCN(C(=O)Cc3ccc(C)cc3)CC2)cc1 | -6.07% |
| O=C(CC12CC3CC(CC(Br)(C3)C1)C2)NC1CCCC1 | -16.5% |
| CCn1cc(C(=O)NCc2ccco2)c(=O)c2cc(S(=O)(=O)N3CCCC3)ccc21 | -4.37% |
| CCOC(=O)c1cn2nc(-c3ccc(OCC)cc3)cc2nc1C1CCN(C(=O)OC(C)(C)C)CC1 | 6.63% |
| O=C(NC1CCCC1)C(c1ccccn1)N(C(=O)c1csnn1)C1CC1 (stereo not drawn) | 10.8% |
| CC(N=Cc1c(O)c2ccccc2oc1=O)C(=O)O (stereo not drawn) | 15.7% |

| SMILES | hERG current change (%, negative = inhibition) at 10uM |
| --- | --- |
| COCCCNC(=S)N(CCCO)Cc1cc2cc3c(cc2[nH]c1=O)OCO3 | 16.4% |
| O=[N+]([O-])c1ccc(N2CCN(S(=O)(=O)c3ccccc3[N+](=O)[O-])CC2)cc1N1CCc2ccccc2C1 | -2.23% |
| CCn1c(-c2ccccc2)c(C(=O)CC#N)c2ccccc21 | 15.2% |
| O=C(CCC1CCCCC1)Nc1c[nH]c(=O)[nH]c1=O | 0.491% |
| CCOC(=O)c1sc2nc(N3CCOCC3)c3c(c2c1N)CCC3 | 18.5% |
| COc1ccc(Cl)cc1S(=O)(=O)NCc1nc2nc(C)cc(C)n2n1 | 14.5% |
| O=C(Nc1ccc(F)cc1F)c1c(C(F)(F)F)ccnc1Oc1ccc(Cl)cc1 | 18.4% |
| CNc1oc(-c2ccccc2)nc1S(=O)(=O)c1ccc(C)cc1 | 12.7% |
| COc1ccc(C)cc1S(=O)(=O)N(CC(=O)NCc1ccc(Cl)cc1)Cc1ccccc1 | 8.35% |
| COC(=O)c1ccc(COC(=O)c2ccc(CS(=O)(=O)c3ccc(C)cc3)cc2)cc1 | 22.5% |
| O=P(O)(c1ccc(Cl)cc1)c1ccc(Cl)cc1 | 4.68% |
| Cc1ccccc1CN1CCCC(C(=O)N2CCCCC2)C1.O=C(O)C(=O)O (stereo not drawn) | 11.2% |
| Cc1cc(C(=O)CSc2nn(-c3ccccc3)c(=S)s2)c(C)n1Cc1ccco1 | 12% |
| CC(=O)N(Cc1nc2sc(C)c(C)c2c(=O)[nH]1)C1CCCC1 | 21.8% |
| COc1ccccc1N1CCN(/N=C/c2cccc(OC)c2OC)CC1 | 2.89% |
| Cc1occc1C(=O)NC1CCCCCC1 | 6.63% |
| COc1ccccc1-n1ccnc1SCC(=O)NCc1ccco1 | 7.5% |
| Cc1ccc(C(=O)NC2CCCCC2)cc1S(=O)(=O)N1CCCC1 | -18.5% |
| CCn1c(SCC(=O)Nc2cc(C)on2)nnc1-c1c[nH]c2ccccc12 | -32.7% |

| SMILES | hERG current change (%, negative = inhibition) at 10uM |
| --- | --- |
| CCOC(=O)CNC(=O)c1ccc(SCC)cc1 | 10.2% |
| O=C(CN1CCN(CCC(=O)Nc2ccccc2F)CC1)Nc1ccc(F)cc1 | -72.6% |
| COc1ccc(CCNC(=O)c2cccc(NC3=NC4CS(=O)(=O)CC4S3)c2)c(OC)c1 (stereo not drawn) | 0.664% |
| Clc1ccc2c(N3CCOCC3)ccnc2c1 | -17.1% |
| CCCCCCCN1C(Nc2ccccc2)=NC[C@@H]1CC(C)C | -73.7% |
| CC(=O)c1ccc(OCCCC(=O)NC2CCCCC2C)cc1 (stereo not drawn) | 0.175% |
| Clc1ss/c(=N\c2ccccn2)c1Cl | 11.4% |
| O=C(NCCCN1CCOCC1)C1CCC(=O)N1C1CCCCC1 (stereo not drawn) | -15.9% |
| COCCNC(=O)C(c1ccc(C)cc1)N(CCOC)C(=O)CCC(=O)Nc1ccccn1 (stereo not drawn) | 17.9% |
| Cc1cc(NC(=O)CSc2nc(C(C)C)nc3ccccc23)no1 | -6.59% |
| CCN1C(=O)NC2C1N(S(C)(=O)=O)CCN2S(C)(=O)=O (stereo not drawn) | 0.265% |
| CCC(CC)C(=O)Nc1ccc(C(=O)Nc2cc(C)on2)cc1 | 2.73% |
| Cc1ccnc2nc(C(=O)OCC(=O)c3c[nH]c4ccccc34)nn12 | 32.1% |
| CCCC(=O)Nc1c(O)c2ccccc2[nH]c1=O | 18.3% |
| c1ccc(NC2=Nc3cccc4cccc2c34)cc1 | 1.71% |
| CCOC(=O)C1(CC2CCCCO2)CCN(Cc2c(C)cc(C)cc2-n2cccn2)CC1 (stereo not drawn) | -77.8% |
| Cc1ccc(C(=O)Oc2ccc([N+](=O)[O-])cc2)cc1S(=O)(=O)N1CCCCCC1 | 3.24% |
| O=C(CCc1ccccc1)Nc1ccc(NC(=O)c2ccco2)cc1 | 2.81% |
| O=C(c1ccccc1Cl)N1CCn2c1nc1ccccc12 | -2.59% |
